# Assay results taken from PMC10726135.
# The other results are listed elsewhere or left out. At the low end of the ranking the order means little. The protein was read in a cell extract, so binding may be indirect.
# Molecular target: T1, HNF4alpha2 (COS-7 nuclear extract) (UniProt P41235)
# T1 sequence: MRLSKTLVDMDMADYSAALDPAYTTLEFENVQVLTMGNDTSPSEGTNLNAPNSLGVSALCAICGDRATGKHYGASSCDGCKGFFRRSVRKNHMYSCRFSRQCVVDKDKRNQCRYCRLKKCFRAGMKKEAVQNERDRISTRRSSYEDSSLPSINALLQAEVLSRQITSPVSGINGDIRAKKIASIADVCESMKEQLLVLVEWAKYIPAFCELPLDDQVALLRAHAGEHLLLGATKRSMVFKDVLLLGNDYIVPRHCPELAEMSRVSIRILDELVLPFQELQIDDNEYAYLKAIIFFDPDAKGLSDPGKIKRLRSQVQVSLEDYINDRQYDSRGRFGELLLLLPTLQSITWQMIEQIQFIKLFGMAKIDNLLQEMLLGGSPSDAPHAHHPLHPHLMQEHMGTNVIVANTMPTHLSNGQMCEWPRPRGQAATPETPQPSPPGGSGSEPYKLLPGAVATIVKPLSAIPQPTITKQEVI
# Assay: protein-binding microarray
# Conditions: COS-7 nuclear extract on double-stranded Agilent 4x180k PBM; binding buffer, salt, pH and temperature not given; high values mean tight binding; double strand, one strand shown; sequences stand for … in …GCCTAGGGAGATTAGAGTATCGGTCGA
row,Sequence,binding signal (log2 normalized intensity)
1,CTTCAAACCTGGGAAAACTTACGCACATTA,-1.07
2,GTTAGTGCCCTCTGGTGGCACACAGAGGAC,-0.856
3,GGAGCATCTATTTTCTATTTCCACTGAGGT,0.713
4,TGGACTTTTATGTTAAGATCAAACAGGGAC,0.692
5,TGAAACATATCCAGAATGTGTTTGCTTTTT,1.55
6,ATTCCAAAAAGCTTTTGTCATGACCTTCGC,4.71
7,TAAAGTGACTAGAGAGCAGGAGCCACCTGT,-1.2
8,CCTCCTAAGTAGCCAAGATTACAGCCACAT,-1.07
9,CCAGCCAGTAGGAGTTGGAACGGGGGCAAG,-1.12
10,ACAGGTGTGGGTTCAAATCCATTCAGCAGC,0.0414
11,GGCTTCTTATCAGCAGCTGGGGTGACTGAT,1.19
12,GCAGAGAAGACTTGGGGGAGGAGGGCAACC,-1.08
13,TCTCGGTCAAACCTTTGACCCTTTATAATC,5.95
14,AAGTCAGAGGCCCAGCAAGGAGAAAGCGAG,-1.2
15,TGCTCCAGGCCGGCTTGCGTCCCCAGGTGA,-1.03
16,ACTTAGGACACAAAGAGTTCAGAGAGGGAT,-0.914
17,CGCCGGGCGCCGCTCTGAGTGACCTTTCAC,4.57
18,TGAAGACAGGCCAGGGTGATCAAACATCAC,-1.18
19,CTGGCTGGGCAGGCTCCCTCCCTGGGAGGC,-1.01
20,TCATTCCTCAAATGCTCCTTTGAACAACTC,0.907
21,TCCAAAGGTAATGGTCTCTCCCAGCGGGTC,-0.215
22,GTCTCTCTCATTCACACCCTCAGCTGATGG,-1.18
23,GAGGATGGGAAGTCCAAAGTCTGCAGGGTA,3.1
24,AAGCCTGATGAAGCCTATAGTGCTCCCTCC,-1.21

row,Sequence,binding signal (log2 normalized intensity)
1,CACAGCAGAGGAGCCCTGGGCTCAGAAATC,-1.19
2,CAAACGCCCCTTGGATGAATGGCTGATTGG,0.0149
3,CAGGTTCTGCAACACTTTCTAAGGACACAA,-0.856
4,ACTTCGACCTCACATTGTAGCTAAAATGTT,0.48
5,TGTTTAGCCCAATAAAATCTGGCAGCTTAA,-1.16
6,AGTAGGCACTATTATCCCCCTATCCCAAGA,4.83
7,TATTGGGAGGCCCATTGTGCTGGGGGCAAG,1.55
8,TCCTCTATCTTCAAAGCCAGCAACGGTGAG,0.28
9,CAGTTGACCTTTGAACACCACAAGTTTGAA,6.31
10,GCAAAGATCAGTGAGAAGAGAAACACATGC,-1.15
11,ATTCCAGGAAGGTCTGATGGGCCAGGCAGG,-1.14
12,GTGGTGTCTTACCGGGATTTTGTTGGGGAA,1.09
13,GCCGGCTCTGAAGAGAACGGCTGATTCTGA,-1.26
14,TTGAAATGTTATCATTAGGGAAAATAGTGA,1.31
15,TCCTCCTTTTTTTTTTCAAGTGTTAGCTGT,1.74
16,CCTGGGTCAAATTGGTGCTTTCATCCCCTG,1.56
17,AAAGTGACCCTCTGCCCCCTACACAGAGGA,4.47
18,ACGACTTGCTTATCTTACGCAACTGAAATT,-1.12
19,GCACGAAAAACAGGTAGTTTGCAGTCTGAG,0.261
20,GTGACGGAGGTGACCTTTGGTTGTCCTTAC,4.31
21,AACACCAGCAACCGCCTACCTTTGGACTTC,5.43
22,ACTGAGAAACCAAGATCCTAGTCTTTAGAG,-1.17
23,GCTCAGTGCCTTCTCTAATGACTGATAATT,1.14
24,GGCATCATAAACTCCAACTCAGCCCCCAGC,4.6

row,Sequence,binding signal (log2 normalized intensity)
1,AGCCTTGAATTGGCATGAGATCCACCTAAG,-1.07
2,GGACAGCAGAGTGGAGGCCAGCGCCAGGCT,-1.13
3,AGGGAGGAGGGATCAAGCAGGTGACCTTCG,3.3
4,TGCAGCCCACAGCCCGCTGTGCCTGTCACC,-0.97
5,GGCATATCTTTTTATCTCTGAATCCTCAAC,0.608
6,CGCTCCCCTCCCCCACCCGCGGTCCGTCCC,5.86
7,CTAGCCCCGCCCAGATGTCTGGCTAAGACC,3.07
8,GCTGATAATGGAATTGACATTCAATTGCAA,-1.04
9,GAACTGGTCCGGCCCGACTCACGACCCCGC,1.98
10,CGTCAAGGTGAAAAGCCTTTTGAAGAAACC,-0.662
11,AGATGGCATCACTCTTGCCACAGAACAGGC,-1.14
12,CCACAGGTATTCTTTCATCCCTCTCCCGCC,2.36
13,TTGTGCAAGAATGCGTCATCCGCATCTGAA,-1.01
14,CGCTGACTCCGGGGAGCAGGCAGAGGAACA,-0.997
15,AGACTCAACACCCAGGCTTATCTCACTCCA,-1.09
16,ACAACGAGGTGCCAGAAACCTGACTTCCAA,-1.13
17,TCACTTTTTATCTGCCTTTTATCTATTTGT,1.6
18,AAAGACCCTAAACCTGTTGGGTCAGGCTGC,-1.13
19,TCACTATTGACATTTGGGGTCAGATAATTC,2.5
20,CCCCTTGAGACTTTAATCTCTCCTCTGACA,-0.4
21,GCCGATCACTGGCCCAGCTGGTTTGAAGAA,-0.927
22,AGTTTGGAGATGCCGTTAAGCAGATAAGGT,0.185
23,AACAAAGGTCGGTGGTATGTGTGTGCTTTA,2.16
24,AAGGACCTCCTGAGATAGGTATGATAACCC,0.367

row,Sequence,binding signal (log2 normalized intensity)
1,GACCTTTGCTCATGACTATTCTCTAAACTC,3.93
2,AATTTATAGGCACTAGGTGTTCCTCAGCCT,-1.19
3,AGAAACTCAATCGCCTTTTATTTTTCCCCT,1.9
4,GAATTTGGTTACTCGCCTTAGAAATATTCA,-0.82
5,CATGGAGGATTTAGATAACATCTTTTCTCA,-0.37
6,GTAAACTCCCTTTGATGCGGTCAGAGTTCA,3.08
7,CTTTTATAAGGGGCAGCAAACCTACCTGAA,-1.22
8,GTTATGGCACCAAGAAACCTTTCCCTCTCT,-1
9,TGAAACTATAAACTTGGTTACAGGACCAGG,-1.09
10,ATACAACCTCTGTAATAACTGCAGTGCCAC,0.975
11,GATCAAAGGTCGGTTTTAGGACAACATGAG,4.52
12,CCTCAAAGTGGACTTTAGAACCCAAATAGA,5.84
13,TTATTTAAGATTGAGAACTTTGACACCGAG,2.36
14,ATCTTCCAAATTCTCCCAGGCCATACAGAT,1.01
15,TGTACAGGACCATGTTCTCCTAAAGTGACT,-0.786
16,CTGCTTATCTAGGATGAGAATCCACCTGCC,-1.07
17,GAAACTTATTGTGAACTGGAGCAAAGGTCA,5.28
18,GGCCAGGAACGTCACACTGAAAGCTATCCC,-1.18
19,GGGTGTCAAAGCCCAACCAGGATAGGGAGG,-1.11
20,AAAATTCAACAAGACCCTGCCCTTTCCCCC,4.72
21,TAATTTAGATATCGCTCCAAGAGCCAACAG,-1.2
